Measured values taken from the supplement of paper PMC3724861.
Some of the results follow.

test system: T1, Caupolican (Caup) homeodomain DNA-binding domain; experiment: PBM E-score (8-mer, recovered from the published 9-mer minima) (E-score (dimensionless, -0.5 to 0.5)); Drosophila protein; higher = stronger relative binding preference, active = 0.31 or more
T1 sequence: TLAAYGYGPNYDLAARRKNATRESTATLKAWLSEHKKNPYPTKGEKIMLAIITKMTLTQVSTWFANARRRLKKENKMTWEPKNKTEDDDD
Method: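 Protein binding microarray (PBM): in vitro transcribed/translated Caupolican (Caup) homeodomain DNA-binding domain (residues 214-303) applied at 100 nM to a universal 8-mer PBM array (Agilent AMADID 015681). The 8-mer enrichment score (E-score, range -0.5 to 0.5) was computed, and each 9-mer score is the minimum E-score of its two constituent 8-mers. The E-score is the same for a 9-mer and its reverse complement; 0.31 is the stated binding threshold.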

Sequence | PBM E-score
GCGTTTAC | inactive: -0.0438
CGCCGTAA | inactive: -0.0926
CTTTGCTA | inactive: -0.00094
GGAGAAGA | inactive: -0.179
AAGTCCCT | inactive: -0.132
AAGGCCTT | ≥ -0.109
CTTGTTAC | active: 0.365
ATGGTTAA | inactive: 0.0478
GCATCCAA | inactive: -0.0399
ATGCGACC | inactive: -0.0826
CGACTACC | inactive: -0.0888
ATTGGAGG | inactive: -0.0827
CCGTCTCA | inactive: -0.104
GCGCGTCA | inactive: -0.105
ACTAGCTC | inactive: 0.0549
CATGAAGG | inactive: 0.0126
AATTTATA | inactive: 0.192
AGCAAGTG | inactive: 0.0491
CATTCGGG | inactive: -0.00581
CAATACGG | inactive: -0.0365
CCGTCGCA | inactive: -0.118
GCGTGGTA | inactive: -0.00155
ACGAGGAA | ≥ 0.0777
ACGCGACT | inactive: 0.0019
GAATAAAC | inactive: 0.174

Sequence | PBM E-score
AGCGTCCC | inactive: -0.13
ATGCCAAT | inactive: 0.055
GTAGGGGA | inactive: -0.0766
ATCACCTC | inactive: 0.0348
ATCGATAG | inactive: 0.148
GTTTACCA | inactive: 0.063
CATCTTAG | inactive: 0.0142
ACGCGACA | inactive: 0.139
GCACTTTA | inactive: 0.085
ATCTCGGG | inactive: -0.119
GCAGACCA | inactive: -0.114
ACTCCTGC | inactive: -0.0374
AAGCAGAG | inactive: -0.0305
GCCGGTCC | inactive: -0.258
GCAGAGAA | inactive: -0.117
AATGGAAA | inactive: 0.045
CCGGGGAA | inactive: -0.227
CGCGAGCC | inactive: -0.254
CGGCTCAC | inactive: -0.135
GTCTCAAC | inactive: -0.00687
AGTCCGAT | inactive: 0.001
AATCACAA | inactive: 0.19
AAGGGCAT | inactive: -0.0465
ATTGAGAG | inactive: -0.0513
AAAGGATA | inactive: 0.105

Sequence | PBM E-score
AGCGGTAC | inactive: 0.0546
GATTATAA | inactive: 0.0984
ACTGGTCA | inactive: 0.014
CAGGCTTC | inactive: -0.123
AATTAGTC | inactive: 0.151
AATCCCCT | inactive: -0.155
GCCCAACA | inactive: 0.0223
CAGTACAG | inactive: 0.195
CCGGACTC | inactive: -0.141
AGCTGATG | inactive: 0.0305
CCGAAGCC | inactive: -0.272
CAGTGCGA | inactive: -0.045
ACGTCCCC | inactive: -0.13
AGTGTGAC | inactive: 0.115
GGCGCGGA | inactive: -0.281
ATAGTCGG | inactive: -0.0656
CAGTAGGG | inactive: -0.081
ACAGTAGA | inactive: 0.0979
AGGGTACG | inactive: -0.00711
ATCCTAGA | inactive: -0.0887
AATTGTTC | inactive: 0.211
TAGTCTAA | inactive: 0.0123
CCGAGCGC | inactive: -0.209
ATATCCAA | inactive: 0.0871
CCTAAACA | inactive: 0.117

Sequence | PBM E-score
GCAAGGCC | inactive: -0.216
CGCTAACG | inactive: -0.08
TTCTCCAA | inactive: -0.102
GAAAGGGC | inactive: -0.133
AAGACAAG | ≥ 0.267
GCAAGTAC | inactive: 0.176
AATCGATC | inactive: 0.0948
AGATGTGG | inactive: 0.0972
AGCATGAC | inactive: 0.0874
CTGAGTCC | inactive: -0.12
CGTGGGTA | inactive: -0.137
CTTGTCAC | active: 0.322
GTCGCCCA | inactive: -0.175
ATATAGGG | inactive: -0.0725
CACACTGA | inactive: 0.0556
GTACAGAA | inactive: 0.136
CTCACGCC | inactive: -0.207
AACCCGCC | inactive: -0.108
GGGAGACC | inactive: -0.269
GTGATGTA | active: ≥ 0.383
GGTTAAAA | inactive: 0.0275
ACACGTAA | inactive: 0.309
TGCCTTAA | inactive: -0.117
CTACTACC | inactive: 0.0819
CCGAGGGC | inactive: -0.267

Sequence | PBM E-score
GATCCTGA | inactive: -0.0397
CAGCATCC | inactive: -0.0813
GCCGGGAA | inactive: -0.181
AAACGACG | inactive: 0.118
AACCTAGG | inactive: -0.00734
AGCCTTAC | inactive: -0.116
CGTGCTGA | inactive: 0.0459
TACCCCCA | inactive: -0.148
TCATAGCA | inactive: 0.0566
CACCCAAG | inactive: -0.0714
GAGAACTA | inactive: 0.122
CAAGATCC | inactive: 0.05
CTGGAGGA | inactive: -0.11
CTTGAATC | inactive: 0.0525
CCGACGAG | inactive: -0.0411
CGGGGCAG | inactive: -0.227
TGCGGTAA | ≥ 0.0689
CCTATGCC | inactive: -0.139
CACGGCCA | inactive: -0.136
CCAGCAAG | inactive: -0.0738
GCCAACAA | inactive: 0.0786
GGAGGGGA | inactive: -0.175
GACTAACA | inactive: 0.237
CCTCTGTA | inactive: 0.0767
AGCAGACC | inactive: -0.0693

Sequence | PBM E-score
AAGTCGTG | inactive: 0.0196
ACCGGTCC | inactive: -0.204
CGGTCACA | inactive: -0.0463
AATAGTGT | inactive: 0.138
ACAAAACG | inactive: 0.114
GAGGTAGC | inactive: -0.132
CATGGCAG | inactive: 0.0157
AGCGCTGA | inactive: -0.12
TATTGAAA | inactive: 0.117
GCTGATCA | inactive: 0.0205
ATTGCCCG | inactive: -0.0341
ATTCTTGA | inactive: 0.0712
ATGATCAA | inactive: 0.209
GGTCCTAC | inactive: -0.147
CCGGTTAC | inactive: -0.00632
ATCAACCA | inactive: 0.102
CCGAGCCG | inactive: -0.227
AGAGCCGC | inactive: -0.149
ACGAAGCT | inactive: -0.0502
ACATTGGA | inactive: 0.194
ATGTAGCC | inactive: 0.145
ATTTAATG | inactive: 0.14
ACGGGTCG | inactive: -0.0337
ATATCACC | ≥ 0.208
TGAAGGAA | inactive: -0.0592

Sequence | PBM E-score
CGCGCCAA | inactive: -0.18
CCGTTCTA | inactive: -0.0731
CGCATCAG | inactive: -0.0504
CCGCAACA | inactive: 0.0823
GTCTCTTA | inactive: 0.0121
CGCATTCA | inactive: 0.0169
AATGCTAC | inactive: 0.122
CTAGTGGA | inactive: -0.135
ATGACTGA | inactive: 0.0464
GAACCGCA | inactive: -0.0919
AACCTAGA | inactive: -0.0202
AAGCAACG | inactive: -0.0274
ACATGTCT | active: 0.417
ATAGCGAC | inactive: 0.169
AAAGTGAG | inactive: -0.0278
CGCAGCGC | inactive: -0.212
ATTCGTCC | ≥ 0.0709
ATATACGA | inactive: 0.203
ACGAAACT | inactive: 0.0918
GCGCCCAC | inactive: -0.269
AGAGGGCA | inactive: -0.191
GCCATCCA | inactive: -0.111
CGTGTGAC | inactive: 0.115
CCGGAGAA | inactive: -0.128
ATCTAGTA | inactive: 0.24

Sequence | PBM E-score
GTCCGTAA | inactive: 0.126
GCTGTTCC | inactive: -0.0241
ATGCTATG | inactive: 0.176
AAGTTGGC | inactive: -0.0747
ATCAGGGA | ≥ 0.0111
CCGGTACG | inactive: -0.144
CTTCCACC | inactive: -0.121
AGGAGTAA | inactive: 0.0605
GAGCTTAA | inactive: -0.126
ACTTATTA | inactive: 0.125
CATAAGCG | inactive: -0.057
ACCAGTTC | inactive: -0.0567
CGAATAGA | inactive: 0.0132
CCTTGGCG | inactive: -0.248
GCACTCGA | inactive: -0.0474
TCTCCAAA | inactive: -0.00938
CGCTATCC | inactive: -0.0633
AGGTCTAC | inactive: 0.00555
GTATATTA | inactive: 0.3
ACTCATTC | inactive: 0.0831
AAGTGCTG | inactive: 0.0544
TGATAGAA | inactive: 0.109
AATGTTGA | inactive: 0.17
GATTCTTA | inactive: 0.0296
AAAGGCTT | inactive: -0.0526

Sequence | PBM E-score
CCCCTTAG | inactive: -0.208
ACTAGTCG | inactive: 0.0716
CGATTGCA | inactive: 0.0296
ACTCTAAG | inactive: -0.0822
ATTCGTGC | inactive: 0.0245
AATTCTGG | inactive: 0.00497
CATCGAAG | inactive: -0.0314
GATTCGTA | inactive: 0.061
AACAACCC | inactive: 0.247
CTGTCCTA | inactive: 0.0467
ATCGGGAC | inactive: -0.0269
CGTCTCCA | inactive: -0.141
ACAAATAC | inactive: 0.24
CAGCACCG | inactive: -0.134
AGGAGCTA | inactive: -0.0695
AGTCCAGA | inactive: -0.0265
CGGAGATA | inactive: -0.0704
ATCCCGTA | inactive: 0.0864
AAGGGATC | inactive: -0.0319
GACTGCAC | inactive: -0.0366
ACGACTTA | inactive: -0.0113
GGTCACAC | inactive: -0.0544
CCGAGTAA | inactive: 0.0722
